IC50 is the fitted dose that halves viability relative to control wells, and lower means more sensitive; where the fit passes the top or lowest dose, that dose stands as a limit. AUC sums up the same curve from the lowest dose to the 256-fold higher top dose; values near 1 show little effect. For part of these data: Any top dose called inferred is not printed in the source and was worked back from the curve model. For part of these data: Drugs with an entry number were screened twice under separate entries, and the two screens often disagree.
Legend:
Assay in all cases: Viability of human cancer cell lines after 72 h of drug (GDSC screen)
[1] = compound: Cc1sc2c(c1C)C(c1ccc(Cl)cc1)=N[C@@H](CC(=O)OC(C)(C)C)c1nnc(C)n1-2 [JQ1]
Procedure: (§1)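 Human cancer cell lines in 384-well plates, medium with 10% serum, drug for 72 h over a 256-fold dose range (nine 2-fold or five 4-fold steps up to the top dose). Adherent lines were fixed and stained with the nucleic acid dye Syto60, suspension lines read with resazurin; signal relative to control wells, capped at 0 and 100%. One two-parameter sigmoid per drug and line, fitted in a mixed model over all curves with the slope shared within a line.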

[2] = compound: O=C(/C=C/c1cccc(S(=O)(=O)Nc2ccccc2)c1)NO [Belinostat]; settings: top dose 20 µM; top dose inferred
Procedure: as §1

[3] = compound: c1ccc2c(CCNc3ccc(Nc4ccncc4)cc3)c[nH]c2c1 [JNJ-26854165]; settings: top dose 10 µM
Procedure: as §1

[4] = compound: COCC[n+]1c2c(n(Cc3cnccn3)c1C)C(=O)c1ccccc1C2=O [YM155]; settings: top dose 5.12 µM
Procedure: as §1

[5] = compound: Cc1ccc(C(=O)N(CCCN)[C@@H](c2nc3cc(Cl)ccc3c(=O)n2Cc2ccccc2)C(C)C)cc1 [SB-715992]; settings: top dose 0.128 µM; top dose inferred
Procedure: as §1

[6] = compound: COC(=O)[C@H](CCSC)NC(=O)c1ccc(NC[C@@H](N)CS)cc1-c1ccccc1 [FTI-277]; settings: top dose 1.024 µM; top dose inferred
Procedure: as §1

[7] = compound: CC(=O)O[C@@]12CO[C@@H]1C[C@H](O)[C@@]1(C)C(=O)[C@H](O)C3=C(C)[C@@H](OC(=O)[C@H](O)[C@@H](NC(=O)OC(C)(C)C)c4ccccc4)C[C@@](O)([C@@H](OC(=O)c4ccccc4)[C@H]21)C3(C)C [Docetaxel]; settings: top dose 0.0125 µM
Procedure: as §1

[8] = compound: CN1CCN(c2ccc([N+](=O)[O-])c3no[n+]([O-])c23)CC1 [NSC-207895]; settings: top dose 20 µM; top dose inferred
Procedure: as §1

[9] = compound: CCOc1nc(NC(=O)Cc2cc(OC)ccc2OC)cc(N)c1C#N [JNK Inhibitor VIII]; settings: top dose 10 µM; top dose inferred
Procedure: as §1

[10] = compound: C[C@]1(O)C[C@@H](c2nc(-c3ccc4ccc(-c5ccccc5)nc4c3)c3c(N)nccn32)C1 [OSI-906]; settings: top dose 2.56 µM; top dose inferred
Procedure: as §1

[11] = compound: CC1(C)CNc2cc(NC(=O)c3cccnc3NCc3ccncc3)ccc21 [AMG-706]; settings: top dose 2 µM; top dose inferred
Procedure: as §1

[12] = top dose 1 µM, screen: GDSC drug entry 1218, top dose inferred
[13] = top dose 2.56 µM, screen: GDSC drug entry 163

Row | Cell Line | AUC [1, 12] | IC50 [1, 12] [µM] | AUC [1, 13] | IC50 [1, 13] [µM] | AUC [2] | IC50 [2] [µM] | AUC [3] | IC50 [3] [µM] | AUC [4] | IC50 [4] [µM] | AUC [5] | IC50 [5] [µM] | AUC [6] | IC50 [6] [µM] | AUC [7] | IC50 [7] [µM] | AUC [8] | IC50 [8] [µM] | AUC [9] | IC50 [9] [µM] | AUC [10] | IC50 [10] [µM] | AUC [11] | IC50 [11] [µM]
1 | MFE-296 (endometrium, adherent) | 0.981 | > 1 | 0.747 | 0.868 | 0.823 | 13 | 0.951 | > 10 | 0.137 | 0.0205 | 0.927 | > 0.128 | 0.982 | > 1.02 | 0.657 | 0.0022 | 0.861 | 19.1 | 0.962 | > 10 | 0.982 | > 2.56 | 0.966 | > 2
2 | MG-63 (osteosarcoma, adherent) | 0.971 | > 1 | 0.423 | 0.0955 | 0.984 | > 20 | 0.839 | 8.46 | 0.814 | 3.37 | 0.98 | > 0.128 | 0.95 | > 1.02 | 0.609 | 0.00164 | 0.981 | > 20 | 0.971 | > 10 | 0.941 | > 2.56 | 0.893 | > 2
3 | MOG-G-CCM (glioma, adherent) | 0.981 | > 1 | 0.529 | 0.194 | 0.347 | 0.437 | 0.881 | > 10 | 0.212 | 0.0386 | 0.793 | 0.0698 | 0.941 | > 1.02 | 0.409 | 0.000422 | 0.89 | > 20 | 0.958 | > 10 | 0.981 | > 2.56 | 0.896 | > 2
4 | MOG-G-UVW (glioma, adherent) | 0.983 | > 1 | 0.662 | 0.445 | 0.313 | 0.381 | 0.876 | 9.45 | 0.024 | < 0.02 | 0.857 | 0.0994 | 0.975 | > 1.02 | 0.332 | 0.000269 | 0.892 | > 20 | 0.965 | > 10 | 0.975 | > 2.56 | 0.974 | > 2
5 | MS751 (cervix, adherent) | 0.83 | 0.562 | 0.651 | 0.405 | 0.68 | 3.81 | 0.959 | > 10 | 0.14 | 0.0272 | 0.914 | > 0.128 | 0.99 | > 1.02 | 0.612 | 0.00154 | 0.909 | > 20 | 0.985 | > 10 | 0.987 | > 2.56 | 0.972 | > 2
6 | NCI-H28 (mesothelioma, adherent) | 0.977 | > 1 | 0.809 | 1.89 | 0.865 | > 20 | 0.827 | 8.88 | 0.333 | 0.0943 | 0.975 | > 0.128 | 0.959 | > 1.02 | 0.735 | 0.0046 | 0.908 | > 20 | 0.981 | > 10 | 0.891 | > 2.56 | 0.972 | > 2
7 | NCI-H596 (lung adenocarcinoma, adherent) | 0.96 | > 1 | 0.638 | 0.434 | 0.467 | 0.992 | 0.904 | > 10 | 0.194 | 0.0287 | 0.889 | > 0.128 | 0.98 | > 1.02 | 0.817 | 0.00974 | 0.979 | > 20 | 0.975 | > 10 | 0.982 | > 2.56 | 0.982 | > 2
8 | NCI-H841 (small cell lung carcinoma, adherent) | 0.987 | > 1 | 0.949 | > 2.56 | 0.577 | 2.03 | 0.932 | > 10 | 0.054 | < 0.02 | 0.633 | 0.0187 | 0.987 | > 1.02 | 0.678 | 0.00245 | 0.833 | 13 | 0.963 | > 10 | 0.986 | > 2.56 | 0.979 | > 2
9 | NCI-H1048 (small cell lung carcinoma, adherent) | 0.989 | > 1 | 0.961 | > 2.56 | 0.506 | 1.29 | 0.906 | > 10 | 0.021 | < 0.02 | 0.725 | 0.0323 | 0.982 | > 1.02 | 0.69 | 0.00249 | 0.867 | 15 | 0.989 | > 10 | 0.99 | > 2.56 | 0.987 | > 2
10 | NCI-H1435 (lung adenocarcinoma, semi-adherent) | 0.989 | > 1 | 0.915 | > 2.56 | 0.993 | > 20 | 0.993 | > 10 | 0.667 | 0.88 | 0.977 | > 0.128 | 0.987 | > 1.02 | 0.977 | > 0.0125 | 0.989 | > 20 | 0.992 | > 10 | 0.99 | > 2.56 | 0.993 | > 2
11 | NCI-H1563 (lung adenocarcinoma, adherent) | 0.968 | > 1 | 0.974 | > 2.56 | 0.674 | 4.21 | 0.942 | > 10 | 0.475 | 0.27 | 0.985 | > 0.128 | 0.985 | > 1.02 | 0.846 | 0.0119 | 0.973 | > 20 | 0.969 | > 10 | 0.958 | > 2.56 | 0.902 | > 2

Source: the supplement of paper PMC4967469
